From the supplement of paper PMC12067230
The data scatter; read single values as rough.

Experiment: amyloid nucleation score relative to library mode (yeast Sup35 reporter selection) (log enrichment difference); higher = more amyloid nucleation; sequences are the first 22 residues of the Bri2 peptide extended by up to 12 random residues
Details: random library (experiment): 1;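 active = nucleation score significantly above 0 at FDR 0.05; inactive = not significantly above 0 or absent from output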
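Note: [psi-pin-] Saccharomyces cerevisiae expressing SupN fusions, induced by 100 µM Cu2SO4, selected 7 d at 30 °C without adenine and uracil, scored by deep sequencing of output versus input.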

Sequence	amyloid nucleation score
EASNCFAIRHFENKFAVETLICGGGEALAAGKLV	inactive
EASNCFAIRHFENKFAVETLICCRHG	0.655
EASNCFAIRHFENKFAVETLICDLLIGLLKGSEL	inactive
EASNCFAIRHFENKFAVETLICRLWNCQSVEPSW	3.99
EASNCFAIRHFENKFAVETLICNTSCCELGSFP	6.43
EASNCFAIRHFENKFAVETLICRKFFVVARMRDL	inactive
EASNCFAIRHFENKFAVETLICAMRRRSQSCRAS	inactive
EASNCFAIRHFENKFAVETLICVDILEFV	inactive
EASNCFAIRHFENKFAVETLICLQFKAWNESRLK	inactive
EASNCFAIRHFENKFAVETLICGTFKSCLLRLDR	inactive
EASNCFAIRHFENKFAVETLICVMIQKVIRGSPR	inactive
EASNCFAIRHFENKFAVETLICTYRMWKSESMMG	2.75
EASNCFAIRHFENKFAVETLICEWEKGVTPAMGL	inactive
EASNCFAIRHFENKFAVETLICRPFMRLRLRPRV	inactive
EASNCFAIRHFENKFAVETLICTRYSWKILVRRT	inactive
EASNCFAIRHFENKFAVETLICFHRSSYCIGPDL	3.53

Sequence	amyloid nucleation score
EASNCFAIRHFENKFAVETLICYSRYRRLVLGRV	inactive
EASNCFAIRHFENKFAVETLICARALLMGDLATA	inactive
EASNCFAIRHFENKFAVETLICMDSSWPYSLVRK	2.33
EASNCFAIRHFENKFAVETLICLGSFTRVHRGVI	inactive
EASNCFAIRHFENKFAVETLICMK	1.21
EASNCFAIRHFENKFAVETLICYMNLSFKVVGER	3.19
EASNCFAIRHFENKFAVETLICMRLKLQVWEAAA	-0.405
EASNCFAIRHFENKFAVETLICAAQSEYVPVASG	inactive
EASNCFAIRHFENKFAVETLICVPYIGAGGDGVA	inactive
EASNCFAIRHFENKFAVETLICEWLRFRLRTWTR	inactive
EASNCFAIRHFENKFAVETLICGAQGALLDGRQG	inactive
EASNCFAIRHFENKFAVETLICFTLTCGVSCMTG	-0.179
EASNCFAIRHFENKFAVETLICEHD	inactive
EASNCFAIRHFENKFAVETLICALGSKLSYSLGV	0.0198
EASNCFAIRHFENKFAVETLICFSLGWEAPPQWR	7.04

Same assay, conditions: random library (experiment): 2

Sequence	amyloid nucleation score
EASNCFAIRHFENKFAVETLICGWVLWFIRVW	0.408
EASNCFAIRHFENKFAVETLICCPALYIISNCSI	7.04
EASNCFAIRHFENKFAVETLICGRGLNFVHGFPV	2.25
EASNCFAIRHFENKFAVETLICLSSHCHNYSCYA	inactive
EASNCFAIRHFENKFAVETLICLISCSIIINHLR	inactive
EASNCFAIRHFENKFAVETLICYQGSLCHVCMLR	inactive
EASNCFAIRHFENKFAVETLICMSSA	inactive
EASNCFAIRHFENKFAVETLICLNYLLHFGDIKW	inactive
EASNCFAIRHFENKFAVETLICIGCA	6.58
EASNCFAIRHFENKFAVETLICIL	5.67
EASNCFAIRHFENKFAVETLICICQEILTFRYRT	inactive
EASNCFAIRHFENKFAVETLICRDWSMSYGACGR	3.6
EASNCFAIRHFENKFAVETLICHLVSNNFYYV	8.47
EASNCFAIRHFENKFAVETLICDGWFLPYVWSEW	inactive
EASNCFAIRHFENKFAVETLICNLSVDFLLYWVE	0.19
EASNCFAIRHFENKFAVETLICWQCVFSGWIGWF	inactive
EASNCFAIRHFENKFAVETLICLYVTHPGFGNWR	inactive
EASNCFAIRHFENKFAVETLICAQEMRNRKLCLC	inactive
EASNCFAIRHFENKFAVETLICGVKCTVLLIGMT	inactive
EASNCFAIRHFENKFAVETLICYLWHNLLVSRVL	inactive

Sequence	amyloid nucleation score
EASNCFAIRHFENKFAVETLICQLMPPGHCTIYR	inactive
EASNCFAIRHFENKFAVETLICRRQ	inactive
EASNCFAIRHFENKFAVETLICRKERESSRCV	inactive
EASNCFAIRHFENKFAVETLICFLDSMLLSAFSN	inactive
EASNCFAIRHFENKFAVETLICCNMWLVVWYI	4.14
EASNCFAIRHFENKFAVETLICPWYFMGYGCEEG	6.1
EASNCFAIRHFENKFAVETLICCWSIDGLYSSRT	7.2
EASNCFAIRHFENKFAVETLICLVLTVYDHKGDT	6.32
EASNCFAIRHFENKFAVETLICHF	6.58
EASNCFAIRHFENKFAVETLICTRHRIFMSHMLA	inactive
EASNCFAIRHFENKFAVETLICMCSESIL	3.18
EASNCFAIRHFENKFAVETLICVSLGYSWPVNTV	inactive
EASNCFAIRHFENKFAVETLICVYR	0.0566
EASNCFAIRHFENKFAVETLICFAYYLAMGVYKS	inactive
EASNCFAIRHFENKFAVETLICRDLSWYDNRRLV	4.3
EASNCFAIRHFENKFAVETLICNLKSWLWDYGCV	4.88
EASNCFAIRHFENKFAVETLICMSGM	inactive
EASNCFAIRHFENKFAVETLICCVWKRHDVDRYM	8.34
EASNCFAIRHFENKFAVETLICRTCCGLEFEVEE	3.51

Same assay, conditions: random library (experiment): 3

Sequence	amyloid nucleation score
EASNCFAIRHFENKFAVETLICGLQC	3.84
EASNCFAIRHFENKFAVETLICLNVNDTSDSM	6.73
EASNCFAIRHFENKFAVETLICVDTLTLMVRSYG	inactive
EASNCFAIRHFENKFAVETLICRQSYKPWGLLGN	1.99
EASNCFAIRHFENKFAVETLICCDSMLNVVGGSR	5.16
EASNCFAIRHFENKFAVETLICVVRHGGIMVDSG	inactive
EASNCFAIRHFENKFAVETLICEVRCSLRWRLWG	4.32
EASNCFAIRHFENKFAVETLICYLVYTVVFVGVG	-0.294
EASNCFAIRHFENKFAVETLICGDHTRGLSVCSV	inactive
EASNCFAIRHFENKFAVETLICWFGLSMFDVR	inactive
EASNCFAIRHFENKFAVETLICATIVLDGNVTRV	5.49
EASNCFAIRHFENKFAVETLICLILGWDGRSLSA	5.59
EASNCFAIRHFENKFAVETLICVCLCAMMSGSGM	6.04
EASNCFAIRHFENKFAVETLICGPGTHKHSTLSA	inactive
EASNCFAIRHFENKFAVETLICGSLNIERVMLRA	4.01
EASNCFAIRHFENKFAVETLICMTTL	inactive
EASNCFAIRHFENKFAVETLICPVNGQCSGLMAW	inactive
